In PubChem BioAssay (Tox21):
Where “and” joins values, the source holds several entries; their conditions need not be identical. Identical values can stand only once. Inconclusive results, whose numbers are uncertain, are shown with a selection of clear calls. Where the call is inconclusive, the potency comes from a doubtful curve fit. Where a structure was tested more than once in an assay, its records may differ in their call. Calls of active or inactive are those of the source. The call rests on the fitted dose curve; in most records, active means well fitted cell-killing curve with a large enough effect in the repeat runs; inconclusive means weak or mixed curves, or effect the other way; inactive means flat fitted curve, though single readings scatter.

Test: qHTS RealTime-Glo MT Cell Viability Assay in HEK293 cells - 8 hour (AID 1224887); further: nearly all actives have a fitted effect of over 50% in size; on activity change, negative = cytotoxicity: top concentration of the series differs between compounds
Settings: RealTime-Glo luminescence; series mostly up to 76.8 µM; activity change, negative = cytotoxicity: at the top concentration
Text: U.S. Tox21 Program National Center for Advancing Translational Sciences [NCATS] NIH Chemical Genomics Center [NCGC] U.S. Environmental Protection Agency [EPA] National Institutes of Environmental Health Sciences [NIEHS] National Toxicology Program [NTP] U.S. Food and Drug Administration [FDA] Tox21 Assay Overview: Measure of cell viability is critical in the cell-base assay. Analysis of cell viability is necessary for the characterization of cell responses to cytotoxic drugs and environmental stress. A RealTime-Glo MT Cell Viability Assay to monitor cell viability in real time of continues cell culture during 40 hours of compound treatment was used to screen Tox21 10K library compounds in Hek293 cells. The RealTime-Glo MT Cell Viability Assay is a nonlytic, homogeneous, bioluminescent method to measure cell viability in real time using a simple, plate-based method. The assay involves adding NanoLuc luciferase and a cell-permeant prosubstrate to cells in culture. Viable cells reduce the proprietary prosubstrate to generate a substrate for NanoLuc luciferase. This substrate diffuses from cells into the surrounding culture medium, where it is rapidly used by the NanoLuc Enzyme to produce a luminescent signal. The signal correlates with the number of viable cells, making the assay well suited for cytotoxicity studies.
Tox21 Assay Protocol Summary: The mixture of Hek293 cell suspension and reagents were dispensed at 600cells/6 ul/well in 1536-well tissue culture treated black solid bottom plates using a Multidrop dispenser. After the assay plates were incubated at a 37 C/5% CO2 incubator for 5 hours, 23 nL of compounds dissolved in DMSO, positive and negative controls was transferred to the assay plate by a pintool work station. The plates were incubated at 37 C for 40 hours. The luminescence intensity were measured at 0h, 8h, 16h, 24h, 32h and 40h time points using ViewLux plate reader during compound treatment.
On the % scale 0 is the no-effect control and ±100 the full control effect; potency means the concentration at half of the fitted maximal effect; tags describe the fitted curve by direction and shape.

SMILES | activity change, negative = cytotoxicity | Potency
CCC(C)(C#N)N=NC(C)(C#N)CC (stereo not given) | inactive: -3.22% | –
[O]=[Cr](=[O])([OH])[O][Cr](=[O])(=[O])[OH] | – | inconclusive: 35 µM [cytotoxic, partial curve] and inconclusive: 27.5 µM [cytotoxic, partial curve]
Cc1ccc2c(c1N)C(=O)c1ccccc1C2=O | – | active: 7.68 µM and active: 6.92 µM
CCCCCCCCCCn1cc[n+](C)c1 | – | active: 1.74 µM
CC(C)(c1ccccc1)c1ccc(O)c(C(C)(C)c2ccccc2)c1 | – | active: 21.7 µM and active: 30.9 µM
CN(C)S(=O)(=O)N(SC(F)(Cl)Cl)c1ccccc1 | – | active: 9.77 µM
Brc1ccc(Oc2cc(Br)c(Br)cc2Br)c(Br)c1 | – | inconclusive: 49.3 µM [cytotoxic, single point]
CC(C)c1ccc(OP(=O)(Oc2ccc(C(C)C)cc2)Oc2ccc(C(C)C)cc2)cc1 | – | inactive and inconclusive: 24.5 µM [cytotoxic, partial curve]
Cc1ccc(N(SC(F)(Cl)Cl)S(=O)(=O)N(C)C)cc1 | – | active: 12.3 µM
c1ccc(Nc2ccc3ccccc3c2)cc1 | – | inconclusive: 43.4 µM [cytotoxic, partial curve] and inconclusive: 43.6 µM [cytotoxic, partial curve]
Cc1cc(C(C)(C)c2cc(C)c(O)c(C)c2)cc(C)c1O | – | inconclusive: 42.2 µM [cytotoxic, partial curve]
CO/N=C(\C(=O)OC)c1ccccc1CO/N=C(\C)c1cccc(C(F)(F)F)c1 | – | inconclusive: 54.9 µM [cytotoxic, partial curve, poor fit]
C[CH2][Hg][S]c1ccccc1C(=O)O | – | active: 3.09 µM and active: 4.25 µM
CC1(C)C(C=C(Cl)Cl)C1C(=O)OC(C#N)c1ccc(F)c(Oc2ccccc2)c1 (stereo not given) | – | inconclusive: 54.9 µM [cytotoxic, partial curve]
CC1(C)[C@H](C(=O)O[C@H](C#N)c2cccc(Oc3ccccc3)c2)[C@@H]1C=C(Br)Br | – | inconclusive: 54.9 µM [cytotoxic, partial curve, poor fit]
Oc1ccc2ccc3cccc4ccc1c2c34 | – | active: 13.8 µM
C=CC(=O)OCC(CC)(COC(=O)C=C)COC(=O)C=C | – | active: 28.3 µM and active: 21.9 µM
[Cl][Hg][c]1ccccc1 | – | active: 1.95 µM
CC(C)Oc1cccc(NC(=O)c2ccccc2C(F)(F)F)c1 | – | inconclusive: 32.7 µM [cytotoxic]
CCOC(=O)CC(=O)CCl | – | inconclusive: 34.7 µM [cytotoxic, partial curve]

SMILES | activity change, negative = cytotoxicity | Potency
Nc1ccc(Cl)cc1N | – | inconclusive: 11 µM [cytotoxic, partial curve]
OC(c1ccc(Cl)cc1)(c1ccc(Cl)cc1)C(Cl)(Cl)Cl | – | active: 49 µM
C[C@]12C=CC3=C4CCC(=O)C=C4CC[C@H]3[C@@H]1CC[C@@H]2O | – | inactive
O=[N+]([O-])/C=C/c1ccccc1 | – | active: 14 µM and active: 15.5 µM
c1ccc2c(c1)-c1cccc3cccc-2c13 | – | inconclusive: 61.6 µM [cytotoxic, partial curve, poor fit]
Cc1ccc(OP(=O)(Oc2ccccc2)Oc2ccccc2)cc1 | inactive: -18.8% | –
CC1(C)[C@H](/C=C2\CCSC2=O)[C@@H]1C(=O)OCc1coc(Cc2ccccc2)c1 | – | active: 38.9 µM
CCC(=O)O[C@H]1CC[C@H]2[C@@H]3CCC4=CC(=O)CC[C@]4(C)[C@H]3CC[C@]12C | – | active: 38.9 µM and inconclusive: 23.9 µM [cytotoxic, partial curve]
CC(Cc1ccc(C(C)(C)C)cc1)CN1C[C@@H](C)O[C@@H](C)C1 (stereo not given in full) | – | inconclusive: 27.5 µM [cytotoxic, full curve]
CC(C)(C)c1ccc(OP(=O)(Oc2ccccc2)Oc2ccccc2)cc1 | – | inconclusive: 55.3 µM [cytotoxic, partial curve, poor fit]
[CH3][Sn]([CH3])([Cl])[Cl] | – | inactive
CCC[CH2][Sn]([CH2]CCC)([O]C(C)=O)[O]C(C)=O | – | inconclusive: 0.111 µM [cytotoxic, full curve]
COc1ccccc1OC | – | inconclusive: 54.9 µM [rising, partial curve, poor fit]
CCOP(=S)(OCC)Oc1nc(Cl)c(Cl)cc1Cl | – | active: 19.5 µM
S=C=Nc1cccc2ccccc12 | – | active: 21.7 µM
S=C(SSC(=S)N1CCCCC1)N1CCCCC1 | – | inconclusive: 15.1 µM [cytotoxic, partial curve]
CCO/N=C(\CC)C1=C(O)CC(c2c(C)cc(C)cc2C)CC1=O (stereo not given) | – | inconclusive: 24.5 µM [cytotoxic, partial curve]
CCCCCCCCCc1ccc(O)cc1 | – | active: 6.99 µM and active: 4.36 µM
Cc1cc(N=Nc2ccccc2C)ccc1N | – | active: 21.9 µM and active: 19.5 µM
CCC[CH2][Sn]([CH2]CCC)([CH2]CCC)[CH2]CCC | – | active: 11 µM
